Data taken from patent US10993436B2 (priority 2016, dated 2021).

Test system: Xcv (Xanthomonas campestris)
Format: cell-based, Xanthomonas campestris pv. vitians

With `CC1(C)S[C@@H]2[C@H](NC(=O)[C@H](N)c3ccccc3)C(=O)N2[C@H]1C(=O)O` [ampicillin] as the compound, how does the ZOC read?
Its ZOC is 0 mm.
